# Experimental data from PMC4336329 (PLoS ONE, 2015).
# In all, about 310,000 compounds went through this assay and about 2,200 (0.71%) showed an effect of 50% or more. Effects have a minus sign here. Some of the results follow.
# Target: human ether-à-go-go-related gene (hERG) potassium channel (human, UniProt Q12809)
# Assay: primary screen, population patch clamp on CHO cells stably expressing hERG
# Chain of human ether-à-go-go-related gene (hERG) potassium channel (Q12809 whole entry, looked up): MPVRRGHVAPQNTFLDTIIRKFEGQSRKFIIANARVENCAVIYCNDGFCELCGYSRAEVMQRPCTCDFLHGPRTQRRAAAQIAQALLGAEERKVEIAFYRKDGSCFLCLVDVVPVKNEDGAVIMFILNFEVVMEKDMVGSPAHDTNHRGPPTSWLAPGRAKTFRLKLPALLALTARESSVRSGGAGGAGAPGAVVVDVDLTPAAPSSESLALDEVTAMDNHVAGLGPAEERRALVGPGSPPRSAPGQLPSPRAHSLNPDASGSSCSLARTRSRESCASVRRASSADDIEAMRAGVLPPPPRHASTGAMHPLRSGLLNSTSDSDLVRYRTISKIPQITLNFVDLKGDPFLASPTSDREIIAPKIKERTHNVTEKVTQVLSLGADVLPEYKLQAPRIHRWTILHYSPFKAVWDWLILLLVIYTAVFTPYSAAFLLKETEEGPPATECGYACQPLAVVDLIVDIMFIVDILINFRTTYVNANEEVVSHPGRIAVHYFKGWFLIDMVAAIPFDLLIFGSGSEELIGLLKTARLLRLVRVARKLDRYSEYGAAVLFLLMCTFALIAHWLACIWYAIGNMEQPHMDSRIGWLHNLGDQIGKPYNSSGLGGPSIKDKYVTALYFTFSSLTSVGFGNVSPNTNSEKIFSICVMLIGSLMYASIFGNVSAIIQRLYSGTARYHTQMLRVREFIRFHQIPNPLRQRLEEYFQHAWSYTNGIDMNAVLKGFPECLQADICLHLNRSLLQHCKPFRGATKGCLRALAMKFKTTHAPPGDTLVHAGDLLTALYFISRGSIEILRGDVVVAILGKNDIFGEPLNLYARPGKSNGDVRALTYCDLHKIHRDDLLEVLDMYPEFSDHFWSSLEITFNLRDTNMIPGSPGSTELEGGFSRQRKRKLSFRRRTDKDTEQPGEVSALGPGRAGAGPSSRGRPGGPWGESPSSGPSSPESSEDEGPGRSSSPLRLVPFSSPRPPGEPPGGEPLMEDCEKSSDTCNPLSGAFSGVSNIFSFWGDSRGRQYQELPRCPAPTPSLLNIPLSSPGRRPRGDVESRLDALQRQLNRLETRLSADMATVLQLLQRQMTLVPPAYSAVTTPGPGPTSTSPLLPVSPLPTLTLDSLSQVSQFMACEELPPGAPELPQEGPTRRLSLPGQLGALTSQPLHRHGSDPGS
row,Compound,"hERG current change (%, negative = inhibition) at 1uM"
1,CCN(CC)C(=O)COc1ccc2c(-c3ccc(OC)cc3)cc(=O)oc2c1,11.9%
2,O=C(CCSc1ccc(Cl)cc1)N1CCOCC1,11.3%
3,COc1ccc(N2CCN(C(=O)c3oc4ccccc4c3NC(=O)CCc3cc(OC)no3)CC2)cc1,3.95%
4,Cc1csc(NC(=O)CSc2nccn2Cc2ccco2)n1,10.6%
5,Cc1ccc2c(c1)C1CN(C)CCC1N2C(=O)c1ccccc1NS(=O)(=O)c1cccc(C(F)(F)F)c1.Cl (centres unmarked),4.6%
6,O=C(NNC1OC(CO)C(O)C(O)C1O)c1cccc(Br)c1 (centres unmarked),13%
7,CC1CCN(c2c(NCc3ccc(C(=O)NCCc4ccc(Cl)cc4)cc3)c(=O)c2=O)CC1,2.07%
8,CC(=O)N1CCN(c2ccc(NC(=S)NC(=O)COc3ccc(C(C)(C)C)cc3)cc2)CC1,14%
9,Cc1nc2ncnn2c(C)c1CCC(=O)N1CCC2(CC1)OCCO2,8.92%
10,O=C1CN2NC(=S)N(c3ccc(Cl)cc3)C2=CN1c1ccc(Cl)cc1,8.22%
11,CC(C)(CN1CCC(Cc2ccccc2)CC1)NS(=O)(=O)c1ccccc1.O=C(O)C(=O)O,0.0371%
12,COC(=O)c1cc(S(=O)(=O)N2CCN(c3ccccc3OC)CC2)cn1C,21.8%
13,CC(=O)Nc1ccc(S(=O)(=O)NCC(=O)NCCc2ccc(S(N)(=O)=O)cc2)cc1,6.09%
14,COC(=O)c1ccccc1NC(=O)CSc1ccccc1,4.11%
15,COc1ccccc1NC(=O)COc1ccc(/C=N/n2cnnc2)cc1OC,7.74%
16,Cc1cccc2cc(CN(Cc3ccccc3)C(=O)c3cccc(F)c3)c(Cl)nc12,10.2%
17,Cc1onc(NC(=O)NC(=O)c2c(Cl)cccc2Cl)c1Br,1.14%
18,Cc1c(Br)c([N+](=O)[O-])nn1CCCC(=O)N1CCN(c2ccccc2)CC1,-19.4%
19,Cc1cc(C)cc(NC(=O)CCCn2nc(C)c3c(C)n(-c4ccccc4)nc3c2=O)c1,-2.35%
20,CCn1c(CCNC(=O)c2cccs2)nnc1SCC(=O)c1ccc(OC)cc1,1.48%
21,NP(=O)(OCCCCc1ccccc1)Oc1ccccc1Cl (centres unmarked),8.2%
22,Cc1c(C(=O)OCC(=O)NC2CCCCC2)oc2ccccc12,4.34%
23,O=C(/C=C/c1ccc(Cl)cc1)c1cccnc1,-7.66%

row,Compound,"hERG current change (%, negative = inhibition) at 1uM"
1,Cc1cc(O)c(C(=O)c2ccccc2C(=O)O)cc1C,0.388%
2,O=[N+]([O-])c1ccc(OCn2cncn2)cc1,-3.03%
3,Cc1sc(N)nc1-c1cccs1,17.7%
4,O=C(NCCCN1CCOCC1)c1ccc2c(c1)N(Cc1c(F)cccc1Cl)C(=O)c1ccccc1S2,15.3%
5,Cc1cc(C)n2c(SCCN3C(=O)c4ccccc4C3=O)nnc2n1,5.18%
6,CCOC(=O)C1CCN(C(=O)c2ccc(OCC(=O)N3CCOCC3)c(OC)c2)CC1,8.24%
7,CNC(C)C#Cc1ccc2c(=O)c3ccccc3oc2c1 (centres unmarked),9.85%
8,CCN(CC)C(=S)SCC(=O)Nc1ncc2c(n1)CCCC2=O,-1.98%
9,O=C(c1ccc(Cl)cc1)N1CCC(C(=O)N2CCN(c3ncccn3)CC2)CC1,-13.6%
10,O=C(CCCCCn1nnc2ccccc2c1=O)Nc1ccccc1F,14.2%
11,Cn1c(NC(=O)c2ccccc2Br)cc(=O)n(C)c1=O,6.96%
12,CC(C)(C)OC(=O)n1cc(/C=N/NC(=O)c2ccco2)c2ccccc21,10.5%
13,CN(C)S(=O)(=O)c1ccc(C(=O)NCc2ccc3[nH]c4c(c3c2)CCCC4)cc1,9.94%
14,COc1cccc(C(=O)Nc2ccc(C)cc2)c1,11.4%
15,O=c1[nH][nH]c(-c2ccccc2)c1C=Nc1ccc(Cl)cc1,-1.29%
16,C[C@H]1CN=C(Nc2ccccc2)N1CC1CCCCCC1,-0.572%
17,OC(CCNCCc1c[nH]c2ccccc12)C(F)(F)Cl (centres unmarked),6.3%
18,Cc1cc2nc(N)sc2cc1C,9.7%
19,CCC(CC)C(=O)c1c[nH]c(C(=O)NCCCn2ccnc2)c1,12.8%
20,COCC(=O)NC1CC2CCCC(C1)N2Cc1ccccc1 (centres unmarked),-3.16%
21,Cc1ccc(S(=O)(=O)N(CC(=O)NCc2cccnc2)c2ccc(F)cc2)cc1,-38.1%
22,CC1CCC(C(=O)NC(C(=O)N2CCC(N3CCCCC3)CC2)C(C)C)CC1 (centres unmarked),-4.71%
23,C=CCNC(=O)CC(=O)N/N=C/c1ccccc1F,13%

row,Compound,"hERG current change (%, negative = inhibition) at 1uM"
1,COc1cc(NC(=O)CN(C)S(=O)(=O)c2cccs2)cc(OC)c1,6.03%
2,COc1cccc2cc(C(C)N(CCCN3CCOCC3)C(=O)Nc3ccc(Cl)cc3)oc12 (centres unmarked),2.5%
3,CCOC(=O)c1[nH]ncc1CN1CCCC(C(=O)c2ccc(OC)cc2C)C1 (centres unmarked),-16.3%
4,CC(NC(=O)C(Cc1ccccc1)N1C(=O)C2C3CCC(C3)C2C1=O)c1ccccc1 (centres unmarked),7.26%
5,CC(=O)N1CCc2[nH]c3ccccc3c2C1,6.02%
6,COc1cc(NC(=O)CCc2nnc3ccc(N4CCCCC4)nn23)cc(OC)c1OC,15.6%
7,O=C(Cc1ccccc1)NCCS(=O)c1ccc(Cl)cc1 (centres unmarked),5.39%
8,O=C(NC1CCCC1)c1ccc(CS(=O)(=O)c2ccc(Cl)cc2)o1,13.6%
9,CC(=O)c1ccc(OC2OCCOC2Oc2ccc(C(C)=O)cc2)cc1 (centres unmarked),4.2%
10,COc1ccc(/C=C(/NC(=O)c2ccco2)C(=O)N2CCCC2=O)cc1,-0.011%
11,N/C(=N\OC(=O)Cc1ccccc1[N+](=O)[O-])c1cccnc1,2.4%
12,COc1ccc(OCc2cc(C(=O)N(C)CCC3CCOCC3)no2)c(Cl)c1,-3.47%
13,CNC(=O)c1cc2cc(OC)ccc2oc1=O,-4.3%
14,COc1cc(CNC(=O)C2CCCC2)cc(OC)c1OC,16.7%
15,CC(C)CNC(=O)C1CCCN(S(=O)(=O)c2ccc(-n3cnnn3)cc2)C1 (centres unmarked),10.6%
16,O=C(Nc1ccc(-c2csc(-c3ccccc3)n2)cc1)c1ccccc1Cl,16.9%
17,COCCn1c(SCc2cccc(F)c2)nc2cc(C(=O)OC)ccc2c1=O,12%
18,COC(=O)CN(C)C(=O)CC1C(=O)NCCN1CC(C)(C)C (centres unmarked),6.96%
19,CC(=O)c1nn(-c2ccc(Br)cc2)cc1C(=O)c1ccccc1,18.2%
20,Cc1ccnc(SCCn2c(N3CCC(C)CC3)nc3c2c(=O)n(C)c(=O)n3C)n1,6.01%
21,COc1ccc(Cn2c(=O)[nH]c3cc(C(=O)NCCCN4CCCC4)ccc3c2=O)cc1,10.3%
22,CCC(Oc1ccccc1)C(=O)Nc1nnc(S(=O)(=O)Nc2ccccc2)s1 (centres unmarked),13.7%
23,O=C(COC(=O)Cc1ccccc1F)NCCNC(=O)COC(=O)Cc1ccccc1F,2.96%

row,Compound,"hERG current change (%, negative = inhibition) at 1uM"
1,Nc1ccc(OC(=O)Nc2ccc(O)cc2)cc1,8.06%
2,O=C1CC(c2cccc([N+](=O)[O-])c2)c2cc3c(cc2N1)CCC3 (centres unmarked),9.55%
3,O=C(Nc1ccccc1)C1=C[C@@H](C2CC2)C[C@@H](OCCCCO)O1,8.07%
4,O=C(NC12CC3CC(CC(C3)C1)C2)N1CCN(c2nc(-c3ccccc3)cs2)CC1,10.7%
5,CC(C)OC(=O)CSc1nc(C(C)C)nc2ccccc12,13.3%
6,CCOC(=O)CCc1c(C)c(C#N)c2[nH]c3ccccc3n2c1=O,0.662%
7,CCOC(=O)N1CCC2(O)CCCCC2C1c1ccc(F)cc1 (centres unmarked),13.1%
8,CCOc1ccc(-n2c(C)nc3cc(C(=O)NCCN4CCOCC4)ccc32)cc1,-3.45%
9,CN(NC(=O)Nc1ccc(Cl)cc1)c1c(Cl)c(Cl)nn1C,10.6%
10,O=c1[nH]c(=O)n(-c2ccc(F)cc2)c2c1C(C(F)(F)F)(C(F)(F)F)N=C(c1ccc(F)cc1)N2,4.49%
11,CC(C)Cn1c(SC(C)C(=O)NC2CC2)nnc1-c1ccccc1F (centres unmarked),5.43%
12,COc1ccc([N+](=O)[O-])cc1/C=N/NC(=O)CNC(=O)C(c1ccccc1)c1ccccc1,7.17%
13,CCO[C@H]1OC(C(=O)N2CCN(C)CC2)=C[C@@H](C)[C@@H]1CCCO,10.6%
14,COCCCNC(=O)[C@H](Cc1c[nH]c2ccccc12)NC(=O)OCc1ccccc1,7.4%
15,CC(C#N)(NC(=O)CN1CCN(S(=O)(=O)c2ccc(Br)cc2Cl)CC1)C1CC1 (centres unmarked),-1.16%
16,Clc1ccccc1CN1CCC(Cc2ccccc2)CC1,-1.9%
17,Cc1ccc(N=Cc2ccc(N(C)C)cc2)cc1,-3.31%
18,CCN(CC1CCCO1)C(=O)CCc1nnc(CCc2ccc(OC)cc2)o1 (centres unmarked),17.4%
19,Cc1nc2c(sc(=S)n2Cc2ccco2)c(=O)n1CC(=O)Nc1ccccc1,-8.64%
20,O=C(CN1C(=O)NC2(CCCc3ccccc32)C1=O)Nc1ccccc1OC(F)F (centres unmarked),7.85%
